Over roughly 33,000 sequences, “E-score (-0.5 to 0.5)” has its median near -0.04; the highest 2% begin near 0.36. Some of the results follow.
target: T1, Hmlalpha2 (UniProt P0CY09); test: PBM E-score (8-mer binding enrichment) (E-score (-0.5 to 0.5)); higher = stronger / more preferred TF binding; most listed sequences are background and not binding sites; conditions: protein concentration: 200 nM; construct: GST-full length
T1 sequence: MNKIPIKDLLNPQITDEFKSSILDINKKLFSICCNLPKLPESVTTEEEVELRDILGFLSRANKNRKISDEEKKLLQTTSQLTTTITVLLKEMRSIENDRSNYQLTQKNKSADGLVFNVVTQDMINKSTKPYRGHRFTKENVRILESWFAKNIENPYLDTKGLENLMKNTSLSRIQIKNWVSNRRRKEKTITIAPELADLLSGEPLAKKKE
How it was run: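 Universal all-10-mer Agilent arrays, double-stranded by primer extension on fresh or once-stripped slides, were probed with about 100-200 nM GST-tagged yeast transcription factors made by PURExpress. Fluorescent anti-GST detected bound protein, and masliner normalised the scans. E-scores from the Universal PBM Analysis Suite were given to each ungapped eight-base word pooled with its reverse complement.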

Sequence	PBM E-score
ATTTAAAG	0.0592
ACTTCACT	0.12
AGTTGGCA	-0.0319
GCAATGAA	0.126
GTGATAGA	-0.0196
ATACAGTA	0.163
CAGCCGCG	-0.172
CCGGGCAG	-0.165
TATTTCCA	-0.0156
AGAAGACA	0.0723
CGGAGCCC	-0.415
AAGCGTTG	0.0949
CTATAGCA	0.0274
AGGAGAGC	-0.0855
ACCGTGAC	-0.0799
ACTTGACC	0.0105
TCCATACA	0.0677
AAAAATGG	-0.0468
CGTGGTAC	0.0548
GACACGTA	0.293
GGCTCACA	-0.0742
CATGTCGG	0.265
CAGCGTAG	-0.0302
AGCGTCTC	-0.27
AAGGACCG	-0.108

Sequence	PBM E-score
CATTCAAG	-0.202
CTACTTAA	-0.0595
GAGTATGC	0.0811
AGTCCTAG	-0.107
CCTCCGTA	-0.266
CAGTCGTC	-0.24
CATCGAGC	-0.105
CTCCGGTC	-0.236
GAATGGCC	-0.175
CCTCCTGA	-0.0675
GGACTTAC	0.0953
ATGAGATA	0.0757
TCCGAGGA	-0.27
CCCGTCTC	-0.259
CCGGTCCG	-0.401
CTAAGCAG	-0.0545
ATGGGTTG	0.0606
GCACCCAA	-0.283
TCAATCCA	-0.113
GCGATCAA	0.0688
GTCATGTA	0.442
GATTGGCA	-0.141
AGCGTATC	-0.037
GCCCTCGA	-0.0838
CGTAGGCC	0.00375

Sequence	PBM E-score
AGCTAGAC	-0.107
CTACCCTC	-0.301
ACCAGCAA	-0.11
ACGAGCCT	0.0405
GATGCTAA	0.0719
ACTCCGGC	-0.016
AAGCATAA	0.0376
GACAACTA	0.192
ATCGTAGC	0.0907
ATGCATCG	0.147
AAAGAGAC	-0.116
GAATGTTA	0.287
AGCGTCCG	-0.0393
AGTGTGAA	0.108
AATTTAGG	0.127
ACGGCGAC	-0.161
CGGATTTA	0.0972
CCAGCAAC	0.0365
AGAGGCAT	-0.128
AGACATAC	0.242
CGCCCCCG	-0.26
ACTTACGC	0.28
TGGATGAA	-0.0166
GTCGGGGA	-0.0496
GACTCTGA	-0.12

Sequence	PBM E-score
AAGGCCCC	-0.17
GCAGGCGC	-0.153
ATTCGAAC	0.159
GCGCACGC	-0.233
ACAATCAC	0.0329
AGGGAGCC	-0.286
CTGGCTAA	-0.146
CAATGGTA	0.00497
AATTAGGG	0.00029
ACGAACAA	0.332
ACTGTGTC	0.174
GAAGAATA	0.117
CACGCACA	0.192
GCCACACA	-0.192
AGTGTAAC	0.198
CGGGGACG	-0.201
CGGAGTAG	-0.239
CCGAGGAG	-0.301
AGATAGCT	-0.117
ACGAGGCG	0.127
GACAATTA	0.246
AAGAATAC	0.244
ATACTCGG	0.0213
AGTGTTTC	0.0934
TGCTCACA	-0.0264

Sequence	PBM E-score
AGTTGAAC	0.0261
ATGCTGTG	0.238
ATAACGTA	0.321
CACGAACA	0.253
TCCTGGCA	-0.158
ATGTTTGA	0.153
CATGTATA	0.466
GCGCTCCC	-0.274
CGCCGGGA	-0.319
GCGAATCA	-0.0266
ATGAGTGG	-0.233
CCAAGGCC	-0.267
GCTTAGAC	-0.285
ACGCGCAT	0.278
CAATAAAG	-0.0833
CCCCTGGA	-0.236
TAAGAGCA	0.027
TCCGTGAA	0.145
CTACTGGA	-0.198
AGCGAACA	0.049
ACGATCGC	-0.00669
AGGGACAA	-0.273
ACCCCCTA	-0.345
CACTTGAG	-0.22
GTAAAGGA	0.252

Sequence	PBM E-score
AAATGATT	0.157
AGATATCC	0.0071
ATGTCAGA	0.149
GTTTCGAA	0.0112
AGGTCTCG	-0.0533
TCCTTGCA	-0.139
AGCCCCCA	-0.324
GTACGAAC	0.152
GCAGAACA	0.131
GACCAGAA	-0.0844
ACCAACCG	-0.107
GCGAGGCC	-0.23
ACGAATAA	0.0594
GCCGGGCC	-0.212
GGGCCTTA	-0.0909
ATCTGGAC	-0.105
AGGTCAGG	-0.274
GGATTTCA	-0.111
ATTTTAGC	-0.0525
CGCGTGTC	0.262
TATGGGCA	-0.0609
GCGGCCCC	-0.354
TGTTTAAA	0.34
ATCATACA	0.252
GAAAAGCC	-0.395

Sequence	PBM E-score
ATCATTAG	0.0107
GAACAAGC	0.117
ACCTGGTA	-0.0673
ATTAGGTG	-0.102
ACAGCTAA	0.206
CGCTCATC	-0.112
GCGGAAGA	-0.139
CTTGGTCA	0.00341
GCACGCTA	-0.192
AGGGCTAC	-0.23
ATGGGTCC	-0.185
AGCAGCTC	-0.264
CAGATCGC	-0.0789
AGCGGGAG	-0.247
GGGTCACC	-0.315
ATATCCCC	-0.163
CGGTCACG	-0.263
GCCGGCTA	-0.171
AGCAAACC	0.111
ACGGTCCC	-0.356
CTGACGAA	0.0347
AGAGTCGA	-0.214

Source: the supplement of paper PMC3334620
